Measurements taken from the supplement of paper PMC9446081.
In all, about 39,000 compounds went through this assay and about 220 (0.56%) showed activity. Some of the results follow.

test system: Escherichia coli K-12 BW25113; test: relative growth (OD600 normalised to plate interquartile mean) (fraction); higher = less growth inhibition, active = 0.2 or less; settings: 50 µM; LB; incubation time: overnight (16-24 h)
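Note: static incubation at 37 °C against the wild-type strain, values averaged over two biological replicates.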

Structure (SMILES) | relative growth
COc1ccc(NC(=O)N(C)C[C@H]2Oc3ncc(Br)cc3C(=O)N([C@H](C)CO)C[C@@H]2C)cc1 | inactive: 1.02
Cc1cccc(OC[C@@H](O)CN)c1 | inactive: 0.98
CC(C)NC(=O)Nc1ccc2c(c1)C(=O)N([C@H](C)CO)C[C@H](C)[C@H](CN(C)C(=O)Nc1ccc(F)cc1)OCCCC[C@H](C)O2 | inactive: 0.99
COCCOC(=O)N1C(=O)[C@@]2(c3ccccc31)[C@H](c1ccccc1OCCO)N1[C@H](c3ccccc3)[C@H](c3ccccc3)OC(=O)[C@H]1[C@@H]2C(=O)Nc1nc2ccccc2s1 | inactive: 1.03
Cc1ccc(S(=O)(=O)N(C)C[C@@H]2OCCCC[C@@H](C)Oc3ccc(NC(=O)NC4CCCCC4)cc3C(=O)N([C@@H](C)CO)C[C@H]2C)cc1 | inactive: 1
C[C@H]1CN([C@@H](C)CO)C(=O)c2cc(NC(=O)CCN3CCOCC3)ccc2O[C@@H]1CN(C)S(=O)(=O)c1ccc(F)cc1 | inactive: 0.997
C[C@H]1CN([C@@H](C)CO)C(=O)c2cccc(NS(=O)(=O)c3cn(C)cn3)c2O[C@H]1CN(C)S(=O)(=O)c1ccc(F)cc1 | inactive: 0.992
C[C@@H]1CN([C@H](C)CO)C(=O)CCCn2cc(nn2)CO[C@@H]1CN(C)S(=O)(=O)c1ccc(C#N)cc1 | inactive: 1.01
COc1ccc(S(=O)(=O)N(C)C[C@H]2OCCCC[C@@H](C)Oc3ccc(NC(=O)Nc4ccc5c(c4)OCO5)cc3C(=O)N([C@@H](C)CO)C[C@@H]2C)cc1 | inactive: 1.04
COc1ccc(C#Cc2ccc3c(c2)[C@]2(C(=O)N3)[C@H](c3ccc(OCCO)cc3)N3[C@H](c4ccccc4)[C@H](c4ccccc4)OC(=O)[C@H]3[C@@H]2C(=O)N2CCc3cc(OC)c(OC)cc3C2)cc1 | inactive: 1.1
Cc1cccc(S(=O)(=O)N2C[C@H](O)COC[C@H]3O[C@H](CC(=O)NCc4ccc5c(c4)OCO5)CC[C@@H]32)c1 | inactive: 0.996
C[C@@H]1CN([C@@H](C)CO)C(=O)c2cc(NC(=O)NC3CCCCC3)ccc2O[C@@H]1CN(C)Cc1ccc(C(F)(F)F)cc1 | inactive: 0.91
C[C@@H]1CN([C@@H](C)CO)C(=O)c2cc(/C=C/c3ccccc3)cnc2O[C@@H]1CN(C)C(=O)CN1CCOCC1 | inactive: 0.997
COCC#Cc1cnc2c(c1)C(=O)N([C@H](C)CO)C[C@@H](C)[C@@H](CN(C)S(=O)(=O)c1cccc(OC)c1)O2 | inactive: 0.996
C[C@@H]1CCCCO[C@@H](CN(C)C(=O)Nc2ccc(C(F)(F)F)cc2)[C@@H](C)CN([C@H](C)CO)C(=O)c2cc(NS(=O)(=O)c3cn(C)cn3)ccc2O1 | inactive: 0.942
C[C@@]1(C2CC2)Cc2cnnn2CCN1 | inactive: 1.01
CC(C)NC(=O)Nc1ccc2c(c1)C(=O)N([C@@H](C)CO)C[C@H](C)[C@H](CN(C)CC1CCCCC1)OCCCC[C@H](C)O2 | inactive: 1.01
Cc1cccc(C)c1Nc1nc2c(C)cc(C)c(C)c2s1 | inactive: 0.943
O=C(C[C@@H]1C[C@H]2c3cc(NC(=O)c4ccc5c(c4)OCO5)ccc3O[C@H]2[C@H](CO)O1)NCCN1CCCCC1 | inactive: 1.01

Structure (SMILES) | relative growth
COCC#Cc1cnc2c(c1)C(=O)N([C@@H](C)CO)C[C@@H](C)[C@@H](CN(C)S(=O)(=O)c1cccc(OC)c1)O2 | inactive: 0.978
CCS(=O)(=O)N1CC[C@]2(CC1)CN([C@@H](CO)c1c2c2ccc(cc2n1C)OC)C(=O)Nc1c(noc1C)C | inactive: 0.996
C[C@H](CO)N1C[C@H](C)[C@H](CN(C)Cc2ccc(-c3ccccc3)cc2)Oc2ccc(NC(=O)Cn3cnnn3)cc2CC1=O | inactive: 1.01
CCCCOc1cc(C(=O)NCCN(CC)CC)c2ccccc2n1.Cl | inactive: 1.12
C[C@@H]1CN([C@H](C)CO)S(=O)(=O)c2ccc(/C=C/c3ccccc3)cc2O[C@H]1CN(C)C(=O)CN1CCOCC1 | inactive: 1.01
COc1ccc(NC(=O)Nc2ccc3c(c2)C(=O)N([C@H](C)CO)C[C@@H](C)[C@H](CN(C)C(=O)Nc2c(C)noc2C)OCCCC[C@@H](C)O3)cc1 | inactive: 0.987
COc1ccc(CN(C)C[C@H]2OCCCC[C@H](C)Oc3ccc(NS(=O)(=O)c4ccc(OC)cc4)cc3C(=O)N([C@H](C)CO)C[C@H]2C)cc1 | inactive: 1.01
COc1ccc(OCc2c(-c3ccccc3)nnn2CC(=O)NS(=O)(=O)c2cccc(C#N)c2)cc1 | inactive: 0.974
C[C@@H]1CCCCO[C@H](CN(C)Cc2ccc(C(=O)Nc3ccccc3N)cc2)[C@@H](C)CN([C@H](C)CO)C(=O)c2cc(NS(=O)(=O)c3ccc(Cl)cc3)ccc2O1 | inactive: 0.988
C[C@@H]1CN([C@@H](C)CO)C(=O)Cc2cc(NC(=O)Nc3cccc4ccccc34)ccc2O[C@@H]1CN(C)S(=O)(=O)c1ccc(F)cc1 | inactive: 0.994
C[C@@H]1CN([C@@H](C)CO)C(=O)c2cc(NS(C)(=O)=O)ccc2O[C@@H]1CN(C)C(=O)Nc1ccc(F)cc1 | inactive: 1.02
C[C@@H]1CN([C@H](C)CO)C(=O)c2cc(NC(=O)Nc3ccc(C(F)(F)F)cc3)ccc2O[C@@H](C)CCCCO[C@H]1CN(C)S(=O)(=O)c1ccc(F)cc1 | inactive: 1.05
C[C@H](CO)N1C[C@H](C)[C@@H](CN(C)Cc2ccccc2)OCCCC[C@H](C)Oc2ccc(NC(=O)Nc3ccccc3)cc2C1=O | inactive: 0.99
O=C(CN1CCOCC1)N[C@H]1CC[C@H](CCn2cc(C3CC3)nn2)O[C@@H]1CO | inactive: 1.02
CN(C)CCCNC(=O)C[C@H]1CC[C@@H]2[C@H](COc3ccc(NC(=O)NC4CCCC4)cc3C(=O)N2C)O1 | inactive: 1.02
C[C@H]1CCCCO[C@@H](CN(C)C(=O)Nc2ccc3c(c2)OCO3)[C@@H](C)CN([C@@H](C)CO)C(=O)c2cc(NC(=O)CCC(F)(F)F)ccc2O1 | inactive: 0.978
Cc1ccc(NC(=O)CC(C)C)cc1 | inactive: 1.02
C[C@H]1CN([C@@H](C)CO)C(=O)CCCn2cc(nn2)CO[C@H]1CN(C)S(=O)(=O)c1ccccc1C#N | inactive: 0.997
